From PubChem BioAssay (Tox21)
This list was built around the results that the source calls inconclusive (neither active nor inactive); the mix of calls is not that of the screen. For some assays here: Potencies of inconclusive entries are left out as doubtful fits. Activity calls are given as the source filed them. Unless noted, the call rests on the fitted dose curve; in most records, active means well fitted curve in the direction sought with a large enough effect in the repeat runs; inconclusive means weak or mixed curves; inactive means no such curve, though single readings can be large; an effect the other way counts as inactive or inconclusive.

How the values were obtained:
[1] = qHTS assay to identify small molecule phospholipidosis (PLD) inducers (AID 1259344; active means well fitted curve in the direction sought with a large enough effect; inconclusive means small, poorly fitted or top-dose-only effect, or another doubt; inactive means no such curve, though single readings can be large; an effect the other way counts as inactive or inconclusive)
Procedure, shortened: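 HepG2 cells on collagen I, attached 4 h at 37 C, were co-treated with compound and LipidTOX Red dye for 24 h at 37 C, then fixed with paraformaldehyde plus Hoechst 33342 and imaged by high-content microscopy for phospholipid accumulation.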

[2] = qHTS assay to identify small molecule agonists of the sonic hedgehog signaling (Shh) pathway - cell viability counter screen (AID 1259366); further: nearly all actives have a fitted effect of over 50% in size
Procedure, shortened: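 Cytotoxicity counter screen run in the same wells as the Shh reporter assay. NIH/3T3 cells carrying a Gli1 response element–driven luciferase were treated with DMSO-dissolved compounds for 24hr, and live-cell protease activity was measured with CellTiter-Fluor.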

[3] = target: Estrogen receptor beta (Homo sapiens) (UniProt Q92731); test: qHTS assay to identify small molecule agonists of the estrogen receptor beta (ER-beta) signaling pathway (AID 1259377; active means well fitted activation curve with a large enough effect in the signal ratio in the repeat runs, not every such curve was filed as active; inconclusive means weak or mixed curves, or effect the other way; the % refers to the signal ratio); settings: ER-beta-UAS-bla HEK293T, beta-lactamase FRET ratio, 16 h; activation: at 92.4 µM (top of the series) unless noted
Procedure, shortened: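 HEK293T ER-beta-UAS-bla; 2% charcoal-stripped FBS; cells pre-incubated 6 hr, compound 16 hr, 37C/5% CO2; LiveBLAzer B/G FRET substrate 2 h RT; fluorescence intensity read.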

[4] = target: Estrogen receptor beta (Homo sapiens) (UniProt Q92731); test: qHTS assay to identify small molecule antagonists of the estrogen receptor beta (ER-beta) signaling pathway (AID 1259378; active means well fitted inhibition curve with a large enough effect in the signal ratio in the repeat runs, not every such curve was filed as active; inconclusive means weak or mixed curves, or effect the other way; inactive means no such curve, though single readings can be large or run the other way; the % refers to the signal ratio; on activity, negative = inhibition: on the % scale 0 is the no-effect control and ±100 the full control effect); settings: ER-beta-UAS-bla HEK293T, beta-lactamase FRET ratio, 16 h; activity, negative = inhibition: at 92.4 µM (top of the series) unless noted
Procedure, shortened: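 ER-beta-UAS-bla HEK293T (GripTite) cells in 2% charcoal-stripped FBS medium were preincubated 6 hr at 37C, dosed with compound, then stimulated with 1 nM E2 (final) for 16 hr; beta-lactamase reporter read by B/G FRET fluorescence after 2 hr substrate loading.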

[5] = qHTS assay to identify small molecule agonists of the estrogen receptor beta (ER-beta) signaling pathway - cell viability counter screen (AID 1259380); further: nearly all actives have a fitted effect of over 30% in size
Procedure, shortened: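 HEK293T ER-beta-UAS-bla; 2% CS-FBS; 6 hr pre-plate, 16 hr cpd at 37C/5% CO2; LiveBLAzer read first, then CellTiter-Glo 30 min RT, luminescence.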

[6] = qHTS assay to identify small molecule antagonists of the estrogen receptor beta (ER-beta) signaling pathway - cell viability counter screen (AID 1259382); further: nearly all actives have a fitted effect of over 55% in size
Procedure, shortened: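 Cells: ER-beta-UAS-bla HEK293T, 2,000/well, 2% CS-FBS, 6 hr settle. Cpd + E2 (1nM final), 16 hr, 37C/5% CO2. Bla FRET substrate 2 hr RT, then CellTiter-Glo 30 min RT, luminescence.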

[7] = qHTS assay to identify small molecule HDAC inhibitors (AID 1259364); further: nearly all actives have a fitted effect of over 45% in size
Procedure, shortened: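 Luminescence from a cell-permeant luminogenic class I/II HDAC substrate reports endogenous deacetylase activity in intact HCT-116 cells treated with compounds for 2 h.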

[8] = target: Estrogen receptor (Homo sapiens) (UniProt P03372); test: qHTS assay to identify small molecule antagonists of the estrogen receptor alpha (ER-alpha) signaling pathway using the BG1 cell line in the presence of 0.1 nM 17-beta-estradiol (AID 1259244); further: nearly all actives have a fitted effect of over 50% in size
Procedure, shortened: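 Cells: VM7Luc4E2, endogenous ER-alpha, 4x ERE-luc stable. Pre-culture 5 d, phenol red-free, charcoal-stripped FBS. Plated 24 h, compound + E2 0.1 nM final, 22 h 37C/5% CO2. Readout ONE-Glo luminescence.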

[9] = qHTS assay to identify small molecule agonists of the androgen receptor (AR) signaling pathway in the presence of an antagonist - cell viability counter screen (AID 1259379); further: nearly all actives have a fitted effect of over 25% in size
Procedure, shortened: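 Cells: MDA-kb2 (MMTV-luc, AR and GR elements), 3,000/well, 5 hr settle. Added: nilutamide 3.0uM final, then compounds (15 conc.). Incubation: 16 hr, 37C, no CO2. Read-out: CellTiter-Fluor, 1 hr, fluorescence.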
Potency means the concentration at half of the fitted maximal effect; tags describe the fitted curve by direction and shape or compound fluorescence and quenching.

Sequence of UniProt Q92731 (Q92731 whole entry, looked up): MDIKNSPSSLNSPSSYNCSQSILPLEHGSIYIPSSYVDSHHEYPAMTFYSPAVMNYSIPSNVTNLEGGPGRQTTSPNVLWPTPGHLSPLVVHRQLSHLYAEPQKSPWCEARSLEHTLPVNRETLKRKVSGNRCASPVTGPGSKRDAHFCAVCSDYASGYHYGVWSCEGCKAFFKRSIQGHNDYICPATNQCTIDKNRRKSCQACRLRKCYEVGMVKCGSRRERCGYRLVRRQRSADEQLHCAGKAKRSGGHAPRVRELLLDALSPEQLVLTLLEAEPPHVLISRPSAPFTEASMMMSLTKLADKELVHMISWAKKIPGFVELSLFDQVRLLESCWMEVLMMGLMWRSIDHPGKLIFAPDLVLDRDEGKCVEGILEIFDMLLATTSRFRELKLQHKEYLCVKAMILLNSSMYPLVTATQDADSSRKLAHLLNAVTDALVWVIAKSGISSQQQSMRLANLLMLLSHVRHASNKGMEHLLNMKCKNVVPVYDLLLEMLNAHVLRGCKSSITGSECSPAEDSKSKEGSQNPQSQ
Sequence of UniProt P03372 (P03372 whole entry, looked up): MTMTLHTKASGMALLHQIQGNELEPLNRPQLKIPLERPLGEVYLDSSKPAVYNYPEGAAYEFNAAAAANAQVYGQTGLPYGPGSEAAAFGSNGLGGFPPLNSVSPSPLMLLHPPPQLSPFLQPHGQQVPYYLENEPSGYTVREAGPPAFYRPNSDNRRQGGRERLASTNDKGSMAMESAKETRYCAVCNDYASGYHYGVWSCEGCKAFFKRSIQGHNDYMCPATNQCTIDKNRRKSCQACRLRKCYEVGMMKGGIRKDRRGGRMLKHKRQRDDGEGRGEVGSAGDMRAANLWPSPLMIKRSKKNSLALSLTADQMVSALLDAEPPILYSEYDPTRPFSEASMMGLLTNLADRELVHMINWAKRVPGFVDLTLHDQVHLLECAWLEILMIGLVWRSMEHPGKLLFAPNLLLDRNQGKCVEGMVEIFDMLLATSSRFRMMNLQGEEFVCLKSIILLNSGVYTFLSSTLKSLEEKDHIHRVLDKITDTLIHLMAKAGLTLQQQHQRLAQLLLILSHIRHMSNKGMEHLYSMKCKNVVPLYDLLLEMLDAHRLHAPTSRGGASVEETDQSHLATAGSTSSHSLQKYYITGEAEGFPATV

SMILES: COc1cccc(CCc2ccccc2OCC(CN(C)C)OC(=O)CCC(=O)O)c1 (configuration not stated)
- Potency [1]: inconclusive [activator, single point]
- Potency [2]: inconclusive [cytotoxic, partial curve]
- Potency [3]: inconclusive [rising, partial curve]
- Potency [4]: inconclusive [rising, partial curve]
- Potency [5]: active: 23.7 µM

SMILES: CN1C(C(=O)Nc2ccccn2)=C(O)c2ccccc2S1(=O)=O
- Potency [1]: inactive

SMILES: O=C(CCCN1CCC(O)(c2cccc(C(F)(F)F)c2)CC1)c1ccc(F)cc1
- Potency [1]: inconclusive [activator, partial curve, poor fit]
- Potency [5]: inconclusive [cytotoxic]
- Potency [6]: inconclusive [cytotoxic, partial curve, poor fit]

SMILES: OC[C@]1(O)OC[C@@H](O)[C@H](O)[C@@H]1O
- Potency [1]: inconclusive [activator, single point]

SMILES: c1ccc(CNc2ncnc3nc[nH]c23)cc1
- Potency [7]: inconclusive [inhibitor, partial curve]

SMILES: O=C(N/N=C/c1ccccc1O)c1ccncc1
- Potency [8]: active: 9.44 µM
- Potency [4]: active: 2.11 µM
- Potency [5]: inconclusive [cytotoxic, full curve]

SMILES: O=C(NO)C1(NS(=O)(=O)c2ccc(Oc3ccc(F)cc3)cc2)CCOCC1
- Potency [8]: active: 61.1 µM
- activity, negative = inhibition [4]: inconclusive: -24.6%
- Potency [9]: inconclusive [cytotoxic, single point]
